# Laboratory results as given in PubChem BioAssay AID1865 (National Center for Advancing Translational Sciences (NCATS), 2009).
# Out of some 280,000 compounds screened, about 540 (0.19%) were called active. This list was built around the results that the source calls inconclusive (neither active nor inactive); the mix of calls is not that of the screen. Calls follow the shape of the dose curve; as a rule, active = well fitted activation curve with a large enough effect; inconclusive = small, poorly fitted or top-dose-only effect; inactive = flat fitted curve, though single readings scatter. Potencies beside an inconclusive call are fits to weak or partial responses and may not hold up. More than one record can exist for a structure, and the calls need not agree.
# Test: Quantitative High-Throughput Screen for Regulators of Epigenetic Control; also: nearly all actives have a fitted effect of over 60% in size
# Conditions: murine LDR cells, GFP reporter derepression, 30 h; series mostly up to 53.9 µM
# In short: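 Murine LDR cells bearing a silenced CMV-driven GFP reporter were exposed to compound for 30 h at 37 C. After PBS washes, GFP-positive cells (20-120 um objects) counted by laser-scanning microplate cytometry.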
# Potency is read from the fitted curve at half-maximal effect; tags tell the direction and shape of the fitted curve.
row,Structure (SMILES),Potency
1,CN(C)C1C(=O)C(C(N)=O)=C(O)[C@@]2(O)C(=O)C3=C(O)c4c(O)cccc4[C@@](C)(O)C3[C@H](O)C12 (stereo partly specified),inactive
2,O=C1NC(=O)N(Cc2ccco2)C(=O)/C1=C/c1ccc(-c2cccc([N+](=O)[O-])c2)o1,"inconclusive: 25.1 µM [activator, single point]"
3,CCOc1ccc(N2C(=O)NC(=O)/C(=C\c3ccc(N4CCOCC4)cc3C)C2=O)cc1,"inconclusive: 35.5 µM [activator, single point]"
4,CCC(C)NC(=O)c1c(N)n(Cc2ccc3c(c2)OCO3)c2nc3ccccc3nc12 (stereo unspecified),"inconclusive: 35.5 µM [activator, single point]"
5,COc1ccc(CN2C(=O)NC(=O)/C(=C/c3ccc([N+](=O)[O-])s3)C2=O)cc1,"inconclusive: 3.16 µM [activator, single point]"
6,C/C(O)=C(/C#N)C(=O)Nc1cc(Br)ccc1Br,"inconclusive: 35.5 µM [activator, single point]"
7,Cc1cccc(-n2c(/C=C/c3c(C)[nH]c4ccccc34)nc3ccccc3c2=O)c1,active: 3.98 µM
8,C[C@H](N)[C@H](O)c1ccc(O)c(O)c1,inactive
9,CC1=C2C[C@H]3[C@@H](CC=C4C[C@@H](O)CC[C@@]43C)[C@@H]2CC[C@]12O[C@@H]1C[C@H](C)CN[C@H]1C2C (stereo partly specified),"inconclusive: 15.8 µM [activator, single point]"
10,CN(C)CC1Oc2ccccc2OC1(O)c1ccccc1 (stereo unspecified),"inconclusive: 5.62 µM [activator, single point]"
11,Nc1ccc2c(c1)Cc1ccccc1-2,inactive
12,CN1C(=O)C(=Cc2sc(=O)n(-c3ccccc3)c2N(C)C)C(=O)N(C)C1=O,"inconclusive: 22.4 µM [activator, single point]"
13,CCCCn1c(NC(=O)c2ccco2)c(C(=O)OCC)c2nc3ccccc3nc21,"inconclusive: 31.6 µM [activator, single point]"
14,CN1C(=O)NC(=O)/C(=C\C=C\c2ccccc2[N+](=O)[O-])C1=O,"inconclusive: 35.5 µM [activator, single point]"
15,COc1cc(/C=C/[N+](=O)[O-])ccc1O,inactive
16,CC(C)C[C@H](NC(=O)[C@@H]1CCCN1C(=O)[C@@H](N)Cc1ccc(O)cc1)C(=O)NCC(N)=O,inactive
17,C=C(C)c1cc2cc(C(C)=O)c(O)cc2o1,"inconclusive: 6.31 µM [activator, single point]"
18,CC/C(CC(c1ccccc1)c1c(O)c2ccccc2oc1=O)=N\NC(N)=S (stereo unspecified),"inconclusive: 25.1 µM [activator, single point]"
19,COc1cccc(C(=O)c2cn(CC(=O)Nc3cc(Cl)c(OC)cc3OC)c3nc(C)ccc3c2=O)c1,"inconclusive: 17.8 µM [activator, single point]"
20,COc1ccc(OC)c(-n2c(O)c(C=Nc3c(C)n(C)n(-c4ccccc4)c3=O)c(=O)[nH]c2=O)c1,"inconclusive: 35.5 µM [activator, single point]"
21,CCN(c1ccccc1)S(=O)(=O)c1ccc(NC(=O)c2cc(=O)c3ccccc3o2)cc1,"inconclusive: 35.5 µM [activator, single point]"
22,O=C1NC(=O)C(=Cc2ccc(-c3cc(Cl)ccc3[N+](=O)[O-])o2)C(=O)N1,"inconclusive: 28.2 µM [activator, single point]"

row,Structure (SMILES),Potency
1,Nc1c(C(=O)NCC2CCCO2)c2nc3ccccc3nc2n1Cc1ccco1 (stereo unspecified),active: 25.1 µM
2,CCOC(=O)c1ccc(NC(=O)c2sc3nc4c(cc3c2N)N2CCC4CC2)cc1,"inconclusive: 3.98 µM [activator, single point]"
3,Cc1cc(NC(=O)CCl)nn1C,"inconclusive: 15.8 µM [activator, single point]"
4,CC(C)(C)c1ccc(C(=O)C2CCCN(C3CCC3)C2)cc1 (stereo unspecified),"inconclusive: 17.8 µM [activator, single point]"
5,CC(C)CCn1c(N)c(C(=O)NCc2cccs2)c2nc3ccccc3nc21,"inconclusive: 35.5 µM [activator, single point]"
6,CN(C)C(=S)SC(=S)N(C)C,"inconclusive: 5.62 µM [activator, single point]"
7,COc1ccc(OC)c(NP(=O)(Oc2ccc(Cl)cc2)Oc2ccc(Cl)cc2)c1,inactive
8,Cc1cccc2sc(NC(=O)c3cccn(Cc4ccccc4)c3=O)nc12,"inconclusive: 14.1 µM [activator, single point]"
9,CC[C@]1(O)C(=O)OCc2c1cc1n(c2=O)Cc2cc3ccccc3nc2-1,"inconclusive: 15.8 µM [activator, single point]"
10,COc1cc([C@@H]2c3cc4c(cc3[C@@H](OC)[C@H]3COC(=O)[C@H]23)OCO4)cc(OC)c1O,inactive
11,Oc1cccc2cccnc12,active: 3.98 µM
12,O=C1NC(=O)C(=Cc2ccc(-c3ccccc3[N+](=O)[O-])o2)C(=O)N1,"inconclusive: 22.4 µM [activator, single point]"
13,CN1C(=O)C(=Cc2cccnc2)C(=O)N(C)C1=O,inactive
14,Cc1ccc(C)c(NC(=S)NCCc2cnc[nH]2)c1,"inconclusive: 0.631 µM [activator, single point]"
15,O=C1NC(=O)C(=Cc2ccc(Sc3ccccc3)o2)C(=O)N1,"inconclusive: 35.5 µM [activator, single point]"
16,COc1cccc(NC(=O)c2ccc3c(=O)n4nc(Nc5ccccc5OC)sc4nc3c2)c1,"inconclusive: 6.31 µM [activator, single point]"
17,Cc1cccc(-n2c(/C=C/c3c[nH]c4ccccc34)nc3ccccc3c2=O)c1,"inconclusive: 31.6 µM [activator, single point]"
18,CN(C)c1ccc(C=C(C#N)C#N)cc1,inactive
19,Cc1cccc(N2C(=O)NC(=O)/C(=C/c3ccc([N+](=O)[O-])o3)C2=O)c1,inactive
20,Cc1cc(C)cc(N2C(=O)NC(=O)/C(=C\c3cccn3-c3ccccc3)C2=O)c1,"inconclusive: 31.6 µM [activator, single point]"
21,O=C(Cn1c(=O)n(CC2CCC(C(=O)NCCc3ccccc3)CC2)c(=O)c2ccccc21)Nc1cccc(F)c1 (stereo unspecified),"inconclusive: 10 µM [activator, partial curve]"
22,O=C1c2ccccc2C(=O)N1SC1CCCCC1,"inconclusive: 35.5 µM [activator, single point]"

row,Structure (SMILES),Potency
1,CC(C)CCCn1c(O)c(/C=C2/C=CC=N2)c(=O)[nH]c1=O,inactive
2,CCN(CC)c1ccc(/C=C2\C(=O)NC(=O)N(Cc3ccco3)C2=O)cc1,inactive
3,CC[C@]1(O)CC(O[C@@H]2CC(N(C)C)C(O)C(C)O2)c2c(cc3c(c2O)C(=O)c2c(O)ccc(O)c2C3=O)C1C(=O)OC (stereo partly specified),"inconclusive: 8.91 µM [activator, partial curve]"
4,C=CCNc1nnc(Sc2ncccc2[N+](=O)[O-])s1,"inconclusive: 15.8 µM [activator, single point]"
5,CC[C@]1(O)CC(O[C@@H]2CC(N(C)C)C(O)C(C)O2)c2c(cc3c(c2O)C(=O)c2c(O)cccc2C3=O)C1C(=O)OC (stereo partly specified),active: 6.31 µM
6,C[n+]1c2cc(N)ccc2cc2ccc(N)cc21,active: 0.794 µM
7,CCCCCOc1ccc(C)cc1CN(CCCl)CCCl,"inconclusive: 12.6 µM [activator, single point]"
8,Cc1ccc2oc(=O)c(-c3nc4ccc(C)cc4[nH]3)cc2c1,active: 15.8 µM
9,CCOC(=O)c1c(-n2c(C)cc(C=C3C(=O)NC(=S)NC3=O)c2C)sc2c1CCCC2,"inconclusive: 31.6 µM [activator, single point]"
10,COc1ccc(Cn2c(O)c(/C=N/NC(=O)c3ccccc3)c(=O)[nH]c2=O)cc1,inactive
11,C=CCN1C(=O)NC(=O)/C(=C/C=C/c2ccccc2)C1=O,"inconclusive: 35.5 µM [activator, single point]"
12,Cc1cc(/C=C2\C(=O)NC(=O)N(c3cccc(Br)c3)C2=O)c(C)n1C,inactive
13,CCOc1ccc(N=C2SCCCN2C)cc1,inactive
14,CC(C)[C@@]1(NC(=O)[C@@H]2C[C@@H]3c4cccc5[nH]cc(c45)C[C@H]3N(C)C2)O[C@@]2(O)[C@@H]3CCCN3C(=O)[C@H](Cc3ccccc3)N2C1=O,active: 22.4 µM
15,COc1ccc(C(C)=O)cc1CC(C(=O)c1ccc(F)cc1)N(C)C (stereo unspecified),inactive
16,O=C1NO[C@H]2[C@@H]1CN[C@@H]2C(=O)O,inactive
17,COc1ccc(CCn2c(O)c(C=Nc3ccc(NC(C)=O)cc3)c(=O)[nH]c2=O)cc1OC,"inconclusive: 31.6 µM [activator, single point]"
18,CCOc1ccccc1N=C1SCCCN1C,inactive
19,CC1CC[C@@]2(OC1)O[C@@H]1[C@@H](O)[C@H]3C4CC[C@H]5C[C@@H](O[C@@H]6O[C@H](CO)[C@H](O[C@@H]7O[C@H](CO)[C@@H](O)[C@H](O[C@@H]8OC[C@@H](O)[C@H](O)[C@H]8O)[C@H]7O[C@@H]7O[C@H](CO)[C@@H](O)[C@H](O[C@@H]8O[C@H](CO)[C@@H](O)[C@H](O)[C@H]8O)[C@H]7O)[C@H](O)[C@H]6O)[C@H](O)C[C@]5(C)C4CC[C@]3(C)[C@H]1[C@@H]2C (stereo partly specified),"inconclusive: 3.16 µM [activator, single point]"
20,CCCCC/C=C\C/C=C\CCCCCCCCCC(=O)NCCc1ccc(O)c(O)c1,inactive
21,CN(C(=O)Cc1ccc(Cl)c(Cl)c1)[C@H](CN1CCCC1)c1cccc(N=C=S)c1,inactive
22,O=C1NC(=O)C2(Cc3ccccc3N3CCCC32)C(=O)N1Cc1ccccc1 (stereo unspecified),inactive
